From patent US4808630A, “Method of treating psychotic illnesses” (United States of America, priority 1988, dated 1989)

Tests used:
[1] = HAL and OH-HAL concentrations in serum, red blood cells and brain of rats after HAL followed by isotretinoin (HPLC)
[2] = cited from earlier work
mice = experiment: Gross motor exploratory activity of mice in a novel environment (tranquilizing effect, photocell counts); format: in vivo, Female albino laboratory mice; conditions: 2 hours after 40 mg/kg i.p., 30 minutes, arbitrary units, MANOVA p < .02, p < .05; for Horizontal counts: control 128 ± 48 (tretinoin), 194 ± 24 (isotretinoin); for Vertical counts: control 453 ± 244 (tretinoin), 683 ± 97 (isotretinoin)
Method: Female albino laboratory mice from the National Institute of Health stock weighing between 20 to 30 grams were maintained in home cages in groups of less than ten. They were injected intraperitoneally with a suspension of retinoic acid in 10% Tween 80 in physiologic saline and returned to their home cage for two hours. They were then placed individually in an unfamiliar plexiglass chamber where their gross motor activity was automatically counted by two grids of photocells: one for horizontal and one for vertical (rearing) activity. The total count accumulated over 30 minutes in a given orientation (horizontal or vertical) is a measure in arbitrary units of the gross motor exploratory activity of the mouse in this novel environment. Because baseline activity varies from day to day, control values are given for each trial.

OC(CCCN1CCC(O)(c2ccc(Cl)cc2)CC1)c1ccc(F)cc1 (centres unmarked) [Oh-haloperidol, 4-(4-(4-chlorophenyl)-4-hydroxy-piperdinyl)-1-(4-fluorophenyl)-1-butanol]
overall effect of isotretinoin on brain OH-HAL values ([1]; F(3,31)=8.27, p=0.0003, no individual mean significant): significantly altered overall
overall effect of isotretinoin on serum OH-HAL concentrations ([1]; F(3,31)=9.56, p=0.0001): altered significantly
overall effect of isotretinoin on red blood cell OH-HAL concentrations ([1]; F(3,31)=11.1, p=0.001): significantly altered overall

O=C(CCCN1CCC(O)(c2ccc(Cl)cc2)CC1)c1ccc(F)cc1 [haloperidol, 4-[4-(p-chlorophenyl)-4-hydroxy-piperidino]-4'-fluorobutyrophenone]
HAL concentrations with concurrent anticonvulsant drugs ([2]; concurrent carbamazepine or phenobarbitol): decrease
metabolite of HAL ([2]; humans, reduced form): hydroxy-haloperidol (OH-HAL)
overall effect of isotretinoin on red blood cell HAL concentrations ([1]; F(3,31)=1.71, p=0.186): not significantly altered overall
overall effect of isotretinoin on serum HAL concentrations ([1]; F(3,31)=2.96, p=0.0473): affected significantly
overall effect of isotretinoin on serum ratio OH-HAL to HAL ([1]; F(3,31)=3.38, p=0.0306): significantly altered
overall effect of isotretinoin on brain ratio of OH-HAL to HAL ([1]; F(3,31)=4.86, prob>F=0.0069): significantly changed
overall effect of isotretinoin on brain HAL ([1]; F(3,31)=9.75, p=0.0001): significantly altered overall
overall effect of isotretinoin on red blood cell ratio OH-HAL to HAL ([1]; F(3,31)=12.66, p=0.0001): significantly altered overall
Brain ratio (oh-h/hal) ([1]; isotretinoin 0 mg/kg, HAL 1 mg/kg s.c.): 0.216
Brain Haloperidol ([1]; isotretinoin 0 mg/kg, HAL 1 mg/kg s.c., mean ± standard error): 465 ± 44 ng/mL
Brain ratio (oh-h/hal) ([1]; isotretinoin 1 mg/kg i.p., HAL 1 mg/kg s.c.): 0.15
Brain Haloperidol ([1]; isotretinoin 1 mg/kg i.p., HAL 1 mg/kg s.c., mean ± standard error): 413 ± 31 ng/mL
Brain ratio (oh-h/hal) ([1]; isotretinoin 5 mg/kg i.p., HAL 1 mg/kg s.c., * p < .05): 0.13
Brain Haloperidol ([1]; isotretinoin 5 mg/kg i.p., HAL 1 mg/kg s.c., mean ± standard error): 344 ± 26 ng/mL
Brain ratio (oh-h/hal) ([1]; isotretinoin 10 mg/kg i.p., HAL 1 mg/kg s.c.): 0.19
Brain Haloperidol ([1]; isotretinoin 10 mg/kg i.p., HAL 1 mg/kg s.c., mean, standard error 90, * p < .05): 739 ng/mL
RBC ratio (oh-h/hal) ([1]; red blood cells, isotretinoin 0 mg/kg, upper limit): < .15
RBC ratio (oh-h/hal) ([1]; red blood cells, isotretinoin 1 mg/kg i.p., upper limit, * p < .05): < .11
RBC ratio (oh-h/hal) ([1]; red blood cells, isotretinoin 5 mg/kg i.p., upper limit, * p < .05): < .06
RBC ratio (oh-h/hal) ([1]; red blood cells, isotretinoin 10 mg/kg i.p.): 0.09
RBC Haloperidol ([1]; red blood cells, isotretinoin 10 mg/kg i.p., HAL 1 mg/kg s.c., mean, standard error 8.8): 37.2 ng/mL

CC1=C(/C=C/C(C)=C/C=C/C(C)=C\C(=O)O)C(C)(C)CCC1 [isotretinoin, 13-cis-retinoic acid]
Horizontal counts (mice): 117 ± 56
Vertical counts (mice): 371 ± 216
effect on HAL and OH-HAL concentrations in rats ([1]; ISOT given in DMSO, serum, brain and red blood cells): increases the concentrations of HAL and OH-HAL in the serum, brain, and red blood cells

CC1=C(/C=C/C(C)=C/C=C/C(C)=C/C(=O)O)C(C)(C)CCC1 [tretinoin, 13-trans-retinoic acid]
Horizontal counts (mice): 72 ± 36
Vertical counts (mice): 181 ± 81
